Results from PubChem BioAssay AID1461 (National Center for Advancing Translational Sciences (NCATS), 2008).
In all, about 220,000 compounds went through this assay and about 2,300 (1%) were called active. Inconclusive means that the source gave no clear call. Such entries were picked first, then a sample of the others. Calls come from the whole dose curve; as a rule, active = well fitted inhibition curve with a large enough effect; inconclusive = small, poorly fitted or top-dose-only effect, or effect the other way; inactive = no such curve, though single readings can be large or run the other way. Potencies of inconclusive entries are left out as doubtful fits.
% is set by controls: 0 for no effect and ±100 for the full control effect; potency is the fitted concentration of half-maximal effect; tags give direction and shape of the fitted curve.
Note: nearly all actives have a fitted effect of over 50% in size.

What follows are compounds tested against Neuropeptide S receptor (Homo sapiens) (UniProt Q6W5P4) (assay: qHTS Assay for Antagonists of the Neuropeptide S Receptor: cAMP Signal Transduction). Settings: CHO-NPSR cells, cAMP TR-FRET, antagonist mode; activity change, negative = inhibition: at 38.3 µM (top of the series) unless noted.
Chain of UniProt Q6W5P4 (Q6W5P4 whole entry, looked up): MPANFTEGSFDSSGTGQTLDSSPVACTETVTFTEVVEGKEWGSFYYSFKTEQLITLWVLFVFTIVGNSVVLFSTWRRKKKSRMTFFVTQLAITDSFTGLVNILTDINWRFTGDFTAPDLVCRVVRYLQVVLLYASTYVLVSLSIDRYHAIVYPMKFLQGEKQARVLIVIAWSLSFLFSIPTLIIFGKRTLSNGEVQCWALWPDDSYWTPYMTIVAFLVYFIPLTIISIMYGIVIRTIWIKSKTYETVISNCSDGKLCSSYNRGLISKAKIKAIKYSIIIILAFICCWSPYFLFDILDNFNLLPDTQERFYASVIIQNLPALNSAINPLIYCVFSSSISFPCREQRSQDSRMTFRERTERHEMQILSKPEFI
For `Cc1n[nH]c(C)c1CCc1nc2c3ccccc3nc(SCC(N)=O)n2n1`, the Potency was inconclusive [inhibitor, single point].
For `CCCc1ccc(O)c(N=Cc2cc(Br)cc(OCC)c2O)c1`, the “activity change, negative = inhibition” value was inactive: -32.3%.
With `O=C(NCC(c1cccs1)N1CCOCC1)c1ccccc1NS(=O)(=O)c1ccc(Cl)c([N+](=O)[O-])c1` (stereo not given) the Potency was inconclusive [inhibitor, single point].
For `Nc1ncnc(SCc2c(F)cccc2Cl)n1`, the Potency was inconclusive [activator, single point].
`O=C(N1CCN(c2ccc(F)cc2)CC1)C12CC3CC(CC(C3)C1)C2` was tested, and the Potency was inconclusive [inhibitor, partial curve].
With `CCC(=O)Nc1ccc(C(=O)Cn2ncc(Cl)c(Cl)c2=O)cc1` the Potency was inconclusive [activator, single point].
`CCn1c2ccccc2c2cc(NC(C)=O)ccc21` was tested, and the Potency was inconclusive [activator, partial curve].
For `COc1ccc(S(=O)(=O)N(C)CC(=O)Nc2ccccc2SC)cc1Cl`, the Potency was inconclusive [inhibitor, single point].
In the case of `O=C(C1=C[C@@H](c2ccc(C(F)(F)F)cc2)C[C@@H](OCCCCO)O1)N1CCN(Cc2ccc3c(c2)OCO3)CC1`, the Potency is reported as inconclusive [activator, single point].
With `COC(=O)c1ccc(C(=O)OC)c(NC(=O)COc2ccccc2OC)c1` the “activity change, negative = inhibition” value was inactive: -20.2% [at 46.1 µM].
For `CCC(=O)Nc1nc(C)nc(C)c1C(C)=O`, the Potency was inconclusive [inhibitor, partial curve].
With `COc1[nH]c2ccc(F)cc2c1C(=O)OCC1CCN(CCNS(C)(=O)=O)CC1` the Potency was inconclusive [inhibitor, single point].
With `CCC(C(=O)N1CCN(c2cccc(Cl)c2)CC1)c1ccccc1` (stereo not given) the Potency was inconclusive [inhibitor, single point].
In the case of `CCOC(=O)C1CCN(Cc2ccc(O)c3ncccc23)CC1`, the Potency is reported as active: 2.51 µM.
`N#C/C(=C(/O)COC(=O)CSc1ccc2ccccc2c1)c1nc2ccccc2[nH]1` was tested, and the “activity change, negative = inhibition” value was inactive: 3.23%.
With `COc1ccc(C(=O)c2cnc3ccccc3c2-c2ccccc2)cc1` the “activity change, negative = inhibition” value was inactive: -28.1% [at 46.1 µM].
With `COc1ccc(NC(=O)c2cnc(C)cn2)c2ncccc12` the “activity change, negative = inhibition” value was inactive: 0.663% [at 46.1 µM].
In the case of `Clc1cccc(Cl)c1Cn1cnc2c(N3CCCCCC3)ncnc21`, the Potency is reported as inconclusive [inhibitor, single point].
For `Cc1cc(-c2ccccc2)nc(N(C)NC(=O)C(C)(C)C)c1S(C)(=O)=O`, the “activity change, negative = inhibition” value was inactive: 40.6%.
`O=S(=O)(c1cccs1)N1CCN(S(=O)(=O)c2cccs2)CC1` was tested, and the “activity change, negative = inhibition” value was inactive: 9.11%.
